{"source": "paper PMC6919601", "about": "“Identification of Plasmodium dipeptidyl aminopeptidase allosteric inhibitors by high throughput screening” (PLoS ONE, 2019)", "note": "Hit rate of the full screen: of about 110,000 compounds, about 230 (0.21%) showed an effect of 50% or more. The list shows a part of the results.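 Further: 30 min substrate incubation versus DMSO and 10 µM JCP410 controls.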", "data": [{"target": "DPAP1 (Plasmodium falciparum, UniProt Q8IIJ9)", "sequence (Q8IIJ9 whole entry, looked up)": "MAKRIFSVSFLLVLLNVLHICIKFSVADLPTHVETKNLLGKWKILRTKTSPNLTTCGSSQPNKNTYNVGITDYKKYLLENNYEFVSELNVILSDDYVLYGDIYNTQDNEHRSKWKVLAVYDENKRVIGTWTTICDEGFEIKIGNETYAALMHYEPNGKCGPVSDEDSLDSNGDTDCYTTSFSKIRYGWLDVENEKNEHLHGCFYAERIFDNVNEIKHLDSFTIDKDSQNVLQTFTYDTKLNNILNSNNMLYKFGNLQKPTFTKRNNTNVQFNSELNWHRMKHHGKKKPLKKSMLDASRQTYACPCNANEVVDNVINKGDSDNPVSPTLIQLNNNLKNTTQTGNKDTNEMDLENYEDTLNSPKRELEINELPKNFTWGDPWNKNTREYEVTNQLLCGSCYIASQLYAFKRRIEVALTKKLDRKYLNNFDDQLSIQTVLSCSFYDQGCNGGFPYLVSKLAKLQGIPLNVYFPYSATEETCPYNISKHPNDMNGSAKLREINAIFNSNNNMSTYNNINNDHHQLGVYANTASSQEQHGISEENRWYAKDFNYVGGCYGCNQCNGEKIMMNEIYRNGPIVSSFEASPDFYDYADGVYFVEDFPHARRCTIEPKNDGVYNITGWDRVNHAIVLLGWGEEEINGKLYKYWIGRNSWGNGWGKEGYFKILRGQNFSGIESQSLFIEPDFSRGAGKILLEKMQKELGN", "assay": "primary screen, percent inhibition; read by cleavage of a fluorogenic dipeptide substrate; higher = more effect of the substance", "design": "species or system P. falciparum D10 trophozoite lysates; single well", "units": {"% Inhibition @ 10 uM": "%"}, "values": [{"smiles": "CC(C)c1c(O)cc(-c2cccs2)n(-c2ccc(Cl)cc2)c1=O", "% Inhibition @ 10 uM": 0.658}, {"smiles": "Cc1cc(C)n(Cc2ccc(C(=O)NC(C)C3CC4CCC3C4)o2)n1", "note": "(stereo not shown)", "% Inhibition @ 10 uM": -4.06}, {"smiles": "Cc1ccc(C2C(=O)N(C3CCCCC3)CC(=O)N2C2CCCCC2)cc1", "note": "(stereo not shown)", "% Inhibition @ 10 uM": -2.14}, {"smiles": "Cc1ccccc1NC(=O)CSc1ncccn1", "% Inhibition @ 10 uM": 0.992}, {"smiles": "CCOC(=O)C1=C(N)Oc2cc(O)ccc2C1c1ccc(F)cc1F", "note": "(stereo not shown)", "% Inhibition @ 10 uM": 4.97}, {"smiles": "Cc1ccc2oc(=O)c3cc(C(=O)Nc4cnc5ccccc5c4)sc3c2c1", "% Inhibition @ 10 uM": 1.66}, {"smiles": "CC(C)C[C@H](NC(=O)c1cc(-c2ccccc2)c(Cl)s1)C(=O)NCC#N", "% Inhibition @ 10 uM": 1.35}, {"smiles": "COc1ccccc1C(=O)Nc1nc2c(C)cccc2s1", "% Inhibition @ 10 uM": 5.04}, {"smiles": "Cc1ccc2nc(Cl)c3nnnn3c2c1", "% Inhibition @ 10 uM": 1.86}, {"smiles": "OC(COc1ccccc1Cl)CN1CCN(CC(O)COc2ccccc2Cl)CC1", "note": "(stereo not shown)", "% Inhibition @ 10 uM": 0.131}, {"smiles": "CC1(C)Cc2c(sc3[nH]c(=S)[nH]c(=O)c23)CO1", "% Inhibition @ 10 uM": 8.27}, {"smiles": "O=C1c2cccc3cccc(c23)C(=O)N1c1nc2c(ccc3ccccc32)s1", "% Inhibition @ 10 uM": 3.6}, {"smiles": "NC(=O)CSc1nc2ncccc2c(=O)n1Cc1ccccc1", "% Inhibition @ 10 uM": -5.27}, {"smiles": "Cc1c(CNC2CCCC2)c(C(=O)O)c(C)n1Cc1ccc(F)cc1Cl", "% Inhibition @ 10 uM": -1.92}, {"smiles": "CCOCCCNC(=O)Cn1ncc2c(C)n(Cc3ccc(C)cc3)c(C)c2c1=O", "% Inhibition @ 10 uM": -0.447}, {"smiles": "CCOC(=O)N1CCC(NC(=O)CNC(=O)c2ccco2)CC1", "% Inhibition @ 10 uM": -4.62}, {"smiles": "O=C(NCCc1nc2ccccc2[nH]1)c1ccc(Cl)cc1Cl", "% Inhibition @ 10 uM": 5.7}, {"smiles": "COC(=O)c1ccc(COc2ccc(Cl)c(C)c2)o1", "% Inhibition @ 10 uM": -1.33}, {"smiles": "CCC(C)(C)NC(=O)c1cc(-c2ccc(Br)cc2)[nH]n1", "% Inhibition @ 10 uM": 8.59}, {"smiles": "Cc1ccc(Cn2c(=O)c3c(nc(NCCO)n3C)n(C)c2=O)cc1", "% Inhibition @ 10 uM": -3.24}, {"smiles": "CCO/C(O)=C1/C(C)=NC(=S)NC1c1ccc([N+](=O)[O-])cc1", "note": "(stereo not shown)", "% Inhibition @ 10 uM": -0.261}, {"smiles": "COC(=O)c1sccc1NC(=O)c1cccc2c1SCCC2=O", "% Inhibition @ 10 uM": 3.17}, {"smiles": "CCOc1c(OC)cccc1C1C(C#N)=C(N)Oc2[nH]nc(-c3ccccn3)c21", "note": "(stereo not shown)", "% Inhibition @ 10 uM": 2.67}, {"smiles": "Cc1ccc(OCC(=O)NCc2ccccc2)c(Br)c1", "% Inhibition @ 10 uM": 1.27}, {"smiles": "COc1ccc(CCNC(=O)c2sc3nc(-c4ccc(OC)cc4)ccc3c2N)cc1", "% Inhibition @ 10 uM": -1.11}, {"smiles": "COc1cc(C(=O)NCCC(=O)NC(C)C)cc(OC)c1OC", "% Inhibition @ 10 uM": -0.519}, {"smiles": "CCOC(=O)c1c(-n2ncnc2-c2ccncc2)sc2c1CCCC2", "% Inhibition @ 10 uM": 4.74}, {"smiles": "CN(CC(=O)NC1CCCC1)S(=O)(=O)c1ccc2[nH]c3c(c2c1)CCCC3", "% Inhibition @ 10 uM": -2.77}, {"smiles": "CCN1CCN(C(=O)c2sc3cc(Cl)ccc3c2Cl)CC1", "% Inhibition @ 10 uM": -2.88}, {"smiles": "Cc1cc(-c2ccc(N)cc2)nc2ccc3ccccc3c12", "% Inhibition @ 10 uM": 52.7}, {"smiles": "Cc1ccc(OCC(=O)N2CCC(C)CC2)cc1C", "% Inhibition @ 10 uM": 4.27}, {"smiles": "Cc1ccc(C2C3=C(CC(C)(C)CC3=O)N(CCO)C3=C2C(=O)CC(C)(C)C3)cc1", "% Inhibition @ 10 uM": 1.91}, {"smiles": "O=C1C2C3CCC(C3)C2C(=O)N1c1ccc(Br)cc1", "note": "(stereo not shown)", "% Inhibition @ 10 uM": -5.98}, {"smiles": "O=C(NC1CC1)c1ccc(CSc2nc3cccnc3n2Cc2cccc(F)c2)cc1", "% Inhibition @ 10 uM": 5.62}, {"smiles": "CC(O)(C(=O)O)c1cccc2c1sc1ccccc12", "note": "(stereo not shown)", "% Inhibition @ 10 uM": -4.72}, {"smiles": "COc1ccc(CNC(=O)c2sc3nc4c(c(C(F)(F)F)c3c2N)CCC4)cc1OC", "% Inhibition @ 10 uM": 3.93}, {"smiles": "Cc1ccc(S(=O)(=O)N(CC(=O)Nc2ccc3c(c2)OCO3)c2ccc(C)cc2C)cc1", "% Inhibition @ 10 uM": 1.62}, {"smiles": "CC(CCN1CCN(CCO)CC1)c1ccccc1", "note": "(stereo not shown)", "% Inhibition @ 10 uM": -5.42}, {"smiles": "C(#Cc1ccccc1)CN1CCN(C/C=C/c2ccccc2)CC1", "% Inhibition @ 10 uM": -1.72}, {"smiles": "Cc1c(C)n(C)c2ccc(C(=O)N3CCC4(CC3)OCCO4)cc12", "% Inhibition @ 10 uM": 0.399}, {"smiles": "O=c1c(Cl)c(NCc2ccccc2)cnn1C12CC3CC(CC(C3)C1)C2", "% Inhibition @ 10 uM": -4.85}, {"smiles": "O=C(Nc1ccccc1)c1cc(-c2cccs2)nc2ccccc12", "% Inhibition @ 10 uM": -3.27}, {"smiles": "Cc1ccn2cc(CNC(=O)c3cccc(Cl)c3)nc2c1", "% Inhibition @ 10 uM": -9.28}, {"smiles": "COC(=O)c1nnn(-c2ccc(F)c(Cl)c2)c1C(=O)OC", "% Inhibition @ 10 uM": -1.58}, {"smiles": "CCOc1ccc(-n2c(C)cc(CO)c2C)cc1", "% Inhibition @ 10 uM": 3.73}, {"smiles": "CCOC(=O)c1c(C)[nH]c(C)c1S(=O)(=O)NCCCN1CCc2ccccc2C1", "% Inhibition @ 10 uM": 2.24}, {"smiles": "Cc1ccc(S(=O)(=O)N(C)c2ccc(C(=O)Nc3cccnc3)cc2)cc1", "% Inhibition @ 10 uM": -5.54}, {"smiles": "Cc1ccc(CNc2cc(-c3ccccc3)nc3nncn23)cc1", "% Inhibition @ 10 uM": -0.808}, {"smiles": "CCCC1=NN2C(=N)/C(=C/c3ccc(OS(=O)(=O)c4ccccc4)c(OC)c3)C(=O)N=C2S1", "% Inhibition @ 10 uM": 0.685}]}]}
